Test results published in PubChem BioAssay AID488969 (Vanderbilt High Throughput Screening Facility, 2010).
Over roughly 110,000 compounds, “z-score” has its median near -0.1; the highest 2% begin near 2. The list shows a part of the results. The source made the active and inactive calls.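 Rule for the calls: active = z-score in the third read window above 3 or below -3; inactive = the rest.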

target: Metabotropic glutamate receptor 8 (Rattus norvegicus) (UniProt P70579); test: mGluR8 Gi/Go-coupled signaling modulation – cell-based, rat, thallium flux, HTS, primary screen (AID 488969); settings: HEK293 rat mGluR8, GIRK (G protein-gated inwardly rectifying potassium channel) thallium flux, FluoZin2; at 10 µM; stronger effect = higher value; submaximal glutamate (EC20) added with thallium
UniProt P70579, sequence (P70579 whole entry, looked up): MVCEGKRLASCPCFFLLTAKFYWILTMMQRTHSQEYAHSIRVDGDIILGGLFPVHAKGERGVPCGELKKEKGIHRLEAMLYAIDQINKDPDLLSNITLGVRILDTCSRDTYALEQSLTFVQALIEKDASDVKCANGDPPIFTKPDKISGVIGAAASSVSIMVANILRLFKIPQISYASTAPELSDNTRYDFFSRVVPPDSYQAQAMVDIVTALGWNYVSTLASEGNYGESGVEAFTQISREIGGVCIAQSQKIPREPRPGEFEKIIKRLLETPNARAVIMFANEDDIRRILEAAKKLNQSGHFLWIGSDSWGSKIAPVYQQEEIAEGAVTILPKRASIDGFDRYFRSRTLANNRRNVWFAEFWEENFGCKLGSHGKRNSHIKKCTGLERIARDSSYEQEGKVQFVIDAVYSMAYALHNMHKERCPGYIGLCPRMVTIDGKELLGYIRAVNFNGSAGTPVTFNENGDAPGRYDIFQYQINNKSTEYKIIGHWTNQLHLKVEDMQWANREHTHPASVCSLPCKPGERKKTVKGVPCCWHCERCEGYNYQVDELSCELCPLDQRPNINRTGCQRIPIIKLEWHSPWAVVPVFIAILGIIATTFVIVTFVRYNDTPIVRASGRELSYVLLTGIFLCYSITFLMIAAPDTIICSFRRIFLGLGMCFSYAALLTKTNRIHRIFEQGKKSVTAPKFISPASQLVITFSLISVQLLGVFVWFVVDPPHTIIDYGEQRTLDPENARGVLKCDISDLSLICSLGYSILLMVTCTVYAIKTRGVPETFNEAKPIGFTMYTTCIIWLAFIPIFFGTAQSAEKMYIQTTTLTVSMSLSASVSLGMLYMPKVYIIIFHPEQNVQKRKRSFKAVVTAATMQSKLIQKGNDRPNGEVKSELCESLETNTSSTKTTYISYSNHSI

Structure (SMILES)	z-score
CC(=O)Nc1ccc2c(c1)C(=O)N(c1ccc(C)cc1)C2=O	-0.0778
COc1ccc(S(=O)(=O)N2Cc3ccccc3CC2C(=O)Nc2nccs2)cc1OC (stereo unspecified)	-0.212
Cc1cc(C)cc(OCC(=O)NN2Cc3ccccc3C2=N)c1	-0.183
CC(C)C(=O)NNS(=O)(=O)c1ccccc1[N+](=O)[O-]	0.0767
O=C(Nc1ccc(F)cc1)c1sc2cc(C(F)(F)F)cnc2c1-c1cccs1	-0.442
CCC(=O)Nc1nnc(C(C)(C)C)s1	-0.429
COCCCn1c(SCC(=O)Nc2nc3ccccc3s2)nnc1-c1ccoc1C	0.611
FC(F)(F)c1cc(-c2ccccc2)nc(N2CCCCC2)n1	0.136
CCOc1ccc2nc(SCC(=O)c3ccccc3)sc2c1	0.303
O=C(c1ccc(Cl)c(F)c1F)N1CCOCC1	-0.0943
Cc1ccc(SC(C)C(=O)Nc2ccc(S(=O)(=O)N3CCOCC3)cc2)cc1 (stereo unspecified)	active: 6.05
O=C(CCCCCN1C(=O)c2cccc3cccc(c23)C1=O)N1CCOCC1	-0.0211
O=C(/C=C/c1ccccc1)NC(=S)Nc1ccc(N2CCOCC2)cc1	-0.296
CCc1ccc(C(C(=O)NCCOC)N(C(=O)Cn2nnc3ccccc32)c2cccnc2)cc1 (stereo unspecified)	0.0587
CCCc1cc(-c2n[nH]c(=S)n2C(C)c2ccccc2)cs1 (stereo unspecified)	active: 10.9
CC1(C)NC(=O)N(CN2C(=O)NC(C)(C)C2=O)C1=O	-0.285

Structure (SMILES)	z-score
CCc1nc2ccccc2n1CCC(=O)O	-0.185
Cc1cccnc1NC(=O)c1ccccc1NC(=O)C(C)(C)C	0.177
Cc1ccccc1-c1nnc(-c2ccccc2C)o1	-0.381
COC(=O)CCCC[C@@H]1SC[C@@H](NC(=O)OC)[C@@H]1NC(=O)OC	-0.0528
CC(C)CC1(C)NC(=O)N(CCN2C(=O)c3ccccc3C2=O)C1=O (stereo unspecified)	0.055
COC(=O)CN(n1cnnc1)S(=O)(=O)c1ccccc1Cl	-0.315
Cc1ccc(-c2[nH]c(-c3ccc(C(=O)O)cc3)nc2-c2ccccc2)cc1	-0.218
O=C(CNC(=O)/C(=C\c1ccc(Br)cc1)NC(=O)c1ccccc1)OCc1ccccc1	-0.328
O=C(Nc1ccc2oc(-c3ccncc3)nc2c1)c1cccs1	-1.18
COc1ccc(N(C(=O)C(C)C)S(=O)(=O)c2ccc(Cl)cc2)cc1	-0.275
Cc1ccc2c(c1)C1CCCC3C1N2CC(=O)N3Cc1ccccc1 (stereo unspecified)	-0.338
Cc1ccc(NC(=O)c2ccc3c(c2)OCCO3)cc1	0.675
COc1cc(C2c3sc(=O)[nH]c3SC3C4CCC(C4)C23)ccc1O (stereo unspecified)	-1.7
CC(/C=N/n1c(-c2ccco2)n[nH]c1=S)=C\c1ccccc1	active: 5.91
CCOC(=O)N1CCN(CC(=O)Nc2ccc(C)cc2)CC1	-0.212
